Test results from the supplement of paper PMC4604168 (melanoma cell lines).
The other results are listed elsewhere or left out. Most values come without repeats; read them as rough.

How the values were obtained:
Test in all cases: cell count relative to DMSO control; melanoma cells; higher = more viable cells
Conditions in all cases: library dose: low library concentration; 72 h
MZ2-MEL = tested on: MZ2-MEL
MeWo = tested on: MeWo
RPMI7951 = tested on: RPMI7951
RVH-421 = tested on: RVH-421
SkMel28 = tested on: SkMel28
SkMel30 = tested on: SkMel30
SkMel5 = tested on: SkMel5
UACC257 = tested on: UACC257
UACC62 = tested on: UACC62
WM115 = tested on: WM115
WM1716 = tested on: WM1716
WM1745 = tested on: WM1745
WM3526 = tested on: WM3526
WM3619 = tested on: WM3619
WM451Lu = tested on: WM451Lu
SkMel2 = tested on: SkMel2
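Further: cell number obtained by counting DAPI-stained nuclei in high-throughput microscope images with image analysis software, screen run in 1,536-well plates.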

Structure (SMILES) | cell count (MZ2-MEL) [%] | cell count (MeWo) [%] | cell count (RPMI7951) [%] | cell count (RVH-421) [%] | cell count (SkMel28) [%] | cell count (SkMel30) [%] | cell count (SkMel5) [%] | cell count (UACC257) [%] | cell count (UACC62) [%] | cell count (WM115) [%] | cell count (WM1716) [%] | cell count (WM1745) [%] | cell count (WM3526) [%] | cell count (WM3619) [%] | cell count (WM451Lu) [%] | cell count (SkMel2) [%]
Cc1cc(N2CCOCC2)cc2[nH]c(-c3c(NC[C@@H](O)c4cccc(Cl)c4)cc[nH]c3=O)nc12 + O=C(O)C(=O)Nc1sc2c(c1C(=O)O)CCNC2 [TCS401] (first compound 0.2 µM, partner dose 1.66667 µM) | 105 | 97.9 | 101 | 90.1 | 99.9 | 91 | 94.5 | 88.3 | 89.5 | 113 | 101 | 78.7 | 89.6 | 106 | 110 | –
Cc1cc(N2CCOCC2)cc2[nH]c(-c3c(NC[C@@H](O)c4cccc(Cl)c4)cc[nH]c3=O)nc12 + COc1ccc(COc2ccc(Cc3cnc(N)nc3N)cc2OC)cc1 [GW2580] (first compound 0.2 µM, partner dose 1 µM) | 99.2 | 91.5 | 102 | 51.3 | 97.7 | 76.1 | 106 | 81.3 | 105 | 95.7 | 98.4 | 84 | 114 | 99.5 | 84.9 | –
Cn1nnc2c(C(N)=O)ncn2c1=O [temozolomide] + COc1cc2ncnc(Nc3ccc(Oc4ccccc4)cc3)c2cc1OC [SrcI1] (first compound 2 µM, partner dose 2 µM) | 85.7 | 105 | 116 | 98.4 | 94.7 | 89 | 99.7 | 115 | 81.7 | 98.1 | 98 | 77.5 | 103 | 105 | 105 | –
Cn1nnc2c(C(N)=O)ncn2c1=O [temozolomide] + COc1ccc(COc2ccc(Cc3cnc(N)nc3N)cc2OC)cc1 [GW2580] (first compound 2 µM, partner dose 1 µM) | 85.7 | 100 | 102 | 92.8 | 69 | 102 | 90.4 | 59 | 82.8 | 105 | 83.6 | 89.4 | 104 | 104 | 85.8 | –
O=C(O)c1ccc2c(c1)nc(Nc1cccc(Cl)c1)c1ccncc12 + Nc1cccc2c1CN(C1CCC(=O)NC1=O)C2=O [lenalidomide] (first compound 0.4 µM, partner dose 1 µM) | 88.7 | 81.8 | 83.2 | 90.8 | 91.5 | 80 | – | – | 102 | 90.5 | 88 | 103 | 67.7 | 95.8 | 95.8 | 93.7
Cc1cc(N2CCOCC2)cc2[nH]c(-c3c(NC[C@@H](O)c4cccc(Cl)c4)cc[nH]c3=O)nc12 + O=S(=O)(c1ccccc1)N(CC(F)(F)F)c1ccc(C(O)(C(F)(F)F)C(F)(F)F)cc1 [T0901317] (first compound 0.2 µM, partner dose 1.4 µM) | 110 | 96.5 | 109 | 113 | 89.7 | 77.4 | 70.3 | 73.7 | 87.4 | 96.1 | 90.4 | 68.6 | 102 | 71.2 | 91.7 | –
Cn1nnc2c(C(N)=O)ncn2c1=O [temozolomide] + COc1ccc2c(c1)CCC1C2CCC2(C)C(NCCCCCCN3C(=O)C=CC3=O)CCC12 [U73122] (first compound 2 µM, partner dose 0.4 µM) | 90.3 | 101 | 82.9 | 114 | 89.2 | 84.4 | 114 | 82.6 | 79.7 | 84.9 | 62.7 | 78 | 120 | 83.8 | 103 | –
O=C(O)c1ccc2c(c1)nc(Nc1cccc(Cl)c1)c1ccncc12 + C=C(c1ccc(C(=O)O)cc1)c1cc2c(cc1C)C(C)(C)CCC2(C)C [Bexarotene] (first compound 0.4 µM, partner dose 2 µM) | 90.6 | 88.2 | 82.2 | 81.8 | 67.4 | 99.5 | – | – | 94.6 | 97.9 | 76.5 | 93.5 | 75 | 93.3 | 69.8 | 94.3
O=C(Nc1ccccc1)c1cc([N+](=O)[O-])ccc1Cl + O=C(O)C(=O)Nc1sc2c(c1C(=O)O)CCNC2 [TCS401] (first compound 2 µM, partner dose 1.66667 µM) | 93.7 | 96.3 | 89 | 89.5 | 79.6 | 80.9 | 84 | 86.8 | 85.8 | 101 | 91.3 | 88.4 | 95.8 | 98.2 | 93.9 | –
Cc1cc(N2CCOCC2)cc2[nH]c(-c3c(NC[C@@H](O)c4cccc(Cl)c4)cc[nH]c3=O)nc12 + O=C(Nc1ccccc1)c1cc([N+](=O)[O-])ccc1Cl [GW9662] (first compound 0.2 µM, partner dose 2 µM) | 103 | 89.9 | 135 | 105 | 110 | 101 | 95.7 | 83.5 | 84.2 | 100 | 104 | 86.8 | 104 | 97.2 | 123 | –
O=C(Nc1ccccc1)c1cc([N+](=O)[O-])ccc1Cl + COc1cc(N2CCC(N3CCN(C)CC3)CC2)ccc1Nc1ncc(Cl)c(Nc2ccccc2S(=O)(=O)C(C)C)n1 [NVP-TAE684] (first compound 2 µM, partner dose 0.08 µM) | 92.4 | 96.3 | 90.1 | 78.9 | 103 | 94.6 | 78 | 83.2 | 95.4 | 98.4 | 97.9 | 81.7 | 93.7 | 101 | 99.2 | –
Cc1cc(N2CCOCC2)cc2[nH]c(-c3c(NC[C@@H](O)c4cccc(Cl)c4)cc[nH]c3=O)nc12 + Cc1cc([N+](=O)[O-])ccc1NS(=O)(=O)c1cc(Cl)ccc1Cl [FH535] (first compound 0.2 µM, partner dose 1 µM) | 98.1 | 86.2 | 102 | 98.8 | 94.2 | 79.4 | 82 | 66.5 | 89 | 94.3 | 99.3 | 59.6 | 107 | 91.3 | 113 | –
Cc1cc(N2CCOCC2)cc2[nH]c(-c3c(NC[C@@H](O)c4cccc(Cl)c4)cc[nH]c3=O)nc12 + N#Cc1c(O)c2c(-c3ccc(-c4ccccc4O)cc3)csc2[nH]c1=O [A769662] (first compound 0.2 µM, partner dose 2 µM) | 103 | 99.1 | 88.2 | 120 | 92.8 | 105 | 83 | 72.4 | 88.8 | 98.1 | 93.7 | 85.8 | 104 | 127 | 109 | –
Cc1cc(N2CCOCC2)cc2[nH]c(-c3c(NC[C@@H](O)c4cccc(Cl)c4)cc[nH]c3=O)nc12 + CCCCCCCCCCCC1=C(O)C(=O)C=C(O)C1=O [Embelin] (first compound 0.2 µM, partner dose 1.2 µM) | 101 | 90.2 | 98.7 | 118 | 92.7 | 80.1 | 109 | 77.9 | 101 | 115 | 97.5 | 66.8 | 107 | 105 | 115 | –
Cc1cc(N2CCOCC2)cc2[nH]c(-c3c(NC[C@@H](O)c4cccc(Cl)c4)cc[nH]c3=O)nc12 + COc1ccc(-c2ccc3c(N4CCOCC4)nc(N4C[C@@H](C)O[C@@H](C)C4)nc3n2)cc1CO [KU0063794] (first compound 0.2 µM, partner dose 0.02 µM) | 96.6 | 86 | 99.7 | 97.2 | 95.7 | 80.8 | 92.1 | 70.3 | 91.1 | 108 | 105 | 67.5 | 94.1 | 88.9 | 103 | –
Cn1nnc2c(C(N)=O)ncn2c1=O [temozolomide] + CCCCCCCCCCCC1=C(O)C(=O)C=C(O)C1=O [Embelin] (first compound 2 µM, partner dose 1.2 µM) | 85.8 | 103 | 106 | 104 | 88.6 | 85.4 | 109 | 120 | 80.9 | 99 | 92.6 | 81.8 | 94.7 | 97.4 | 113 | –
Cn1nnc2c(C(N)=O)ncn2c1=O [temozolomide] + COc1ccc(-c2ccc3c(N4CCOCC4)nc(N4C[C@@H](C)O[C@@H](C)C4)nc3n2)cc1CO [KU0063794] (first compound 2 µM, partner dose 0.02 µM) | 86.7 | 106 | 117 | 98.6 | 75.7 | 97.2 | 101 | 88.9 | 78.7 | 92.4 | 78.6 | 88.3 | 100 | 100 | 93.7 | –
Cn1nnc2c(C(N)=O)ncn2c1=O [temozolomide] + O=C(O)C(=O)Nc1sc2c(c1C(=O)O)CCNC2 [TCS401] (first compound 2 µM, partner dose 1.66667 µM) | 89.6 | 107 | 108 | 92.1 | 79.7 | 97.5 | 105 | 92.4 | 76 | 102 | 87.5 | 87 | 117 | 124 | 121 | –
Cc1cc(N2CCOCC2)cc2[nH]c(-c3c(NC[C@@H](O)c4cccc(Cl)c4)cc[nH]c3=O)nc12 + Cn1cc(/C=C2\C(=O)Nc3cccnc32)c2ccccc21 [GW441756] (first compound 0.2 µM, partner dose 0.4 µM) | 99.2 | 95.7 | 124 | 85.1 | 87.4 | 81.4 | 59.6 | 85.3 | 94.2 | 100 | 118 | 76.6 | 108 | 115 | 116 | –
